Results on 34 molecules are retold here after PubChem BioAssay (NCI).

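Exposure lasted 48 hours, with cells grown in 96-well plates and compounds tested at five concentrations. The concentration for 50% growth inhibition is given as GI50. TGI marks complete inhibition of growth.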

In the test the test system is NCI-H322M lung. Briefly: NCI anticancer screen, dose series, 48 h.
`Cc1cc(C)nc(NS(=O)(=O)c2ccc(NC(=O)c3cccc4c(NNc5ccc(S(=O)(=O)N=C(N)N)cc5)c5ccccc5nc34)cc2)n1`: the TGI is > 50 µM.

With `COC(=O)C1(O)C(c2ccccc2)=NC2(C)CCCC21` (centres undefined), the TGI is > 100 µM.

In the case of `CC1(C)N=C2C(=O)c3c([nH]c4ccccc34)[C@]3(C)CCC1CC23` (some centres undefined), the TGI is > 6.25 µM.

Consider `O=C(O)c1ccccc1C(=O)c1ccc2c(c1)Cc1ccccc1-2`, for which the TGI is > 100 µM.

In the case of `S=C1NC2=C(CSC/C2=C\c2ccccc2)C(c2ccccc2)N1` (centres undefined), the TGI was > 100 µM.

Take `CC1=NNC(=O)C1C1CC(c2c[nH]c3ccccc23)=NN=C1Cl` (centres undefined): the TGI is > 100 µM.

Take `O=C(CC(C(=O)c1ccco1)c1ccco1)c1ccco1` (centres undefined): the TGI is > 100 µM.

Take `Cc1cccc(C)c1N1C(=O)C(=O)C(c2nc3ccccc3s2)C(=Nc2cccc3c(=O)[nH][nH]c(=O)c23)C1=O` (centres undefined): the TGI was > 100 µM.

With `O=C1/C(=C/c2cccc([N+](=O)[O-])c2)Sc2scc(-c3ccc([N+](=O)[O-])cc3)[n+]21`, the TGI is > 100 µM.

Regarding `CCN(CC)c1ccc(/C=C/C2=[N+](C)c3ccccc3C2(C)C)c(C)c1`, the GI50 was 0.272 µM and the TGI stood at 8.83 µM.

As to `CCOP(=O)(OCC)OC1CC(n2cc(C)c(=O)n(C)c2=O)OC1CO[Si](C)(C)C(C)(C)C` (centres undefined), the TGI was > 100 µM.

With `c1ccc(C2CC(=NC3CCCCC3)Nc3ccccc3N2)cc1` (centres undefined), the TGI is > 100 µM.

Consider `COc1ccc(C2=C(N3CCc4ccccc43)C(=O)NC2=O)cc1`, for which the GI50 was > 25 µM and the TGI is > 25 µM.

`CCNCCNc1cc(-c2ccc(C#N)cc2)c(C#N)c2nc3ccccc3n12`: the GI50 was 3.76 µM and the TGI worked out at 15.3 µM.

For the molecule `c1ccc2c(c1)CCCC/C2=N/OCC1CO1` (centres undefined), the TGI was > 100 µM.

Consider `O=C1C2=C(CCC2)Nc2cccc3ncn1c23`, for which the TGI is > 100 µM.

In the case of `O=C1c2cccc(O)c2C(=O)c2c(O)cc(CO)cc21`, the TGI was > 100 µM.

In turn, `C=C1C(=O)C23C(O)C1CC[C@H]2C12CCCC(C)(COC(C)=O)[C@H]1[C@H](O)[C@]3(O)OC2` (some centres undefined) returned a TGI of 9.16 µM.

Turning to `N#Cc1c(-c2ccccc2)c2c([nH]c1=O)-c1cc([N+](=O)[O-])ccc1CCC2`, the TGI was > 100 µM.

With `CN(C)c1ccc(Cc2cc3c(O)ccc(O)c3cc(Cc3ccc(N(C)C)cc3)c2=O)cc1`, the TGI was > 100 µM.

As for `CCOC(=O)c1ccc(Nc2nc3ccc(C(F)(F)F)cc3nc2C(=O)OCC)cc1`, the TGI was > 100 µM.

`CC(C)[Si](OC/C(=C/COC(C)(C)C)[C@H]1CC=C(C(=O)c2ccccc2N2CN(C)C(=O)N(C)C2)C1)(C(C)C)C(C)C` returned a TGI of 31.4 µM.

With `COP(=O)(OC)C(Nc1ccc(Cc2ccc(NC(c3ccco3)P(=O)(OC)OC)cc2)cc1)c1ccco1` (centres undefined), the TGI is > 100 µM.

As for `CSc1ccc(N(C)c2nc(C)nc3c2CCC3)cc1`, the GI50 was 19.9 µM and the TGI was > 100 µM.

Consider `CN1CCN(C2=C(Cl)C3(OCCS3)C(F)(F)C2(F)F)CC1` (centres undefined), for which the TGI was > 100 µM.

As for `CC(C)[O-].CC(C)[O-].O=c1cccccc1[O-].O=c1cccccc1[O-].[Ti+4]`, the TGI was > 100 µM.

`COC1C(O)C(O[C@H]2CC[C@@]3(C)C(CC[C@@H]4[C@@H]3CC[C@]3(C)[C@@H](C(C)OC5OC(CO)C(O)C(O)C5O)CC[C@]43O)C2)OC(C)C1OC1OC(CO)C(O)C(O)C1O` (some centres undefined): the TGI is > 100 µM.

As to `CN(C)CCCNC(=O)c1c(O)c2ccccc2n(C)c1=O`, the TGI is > 100 µM.

As for `Nc1cc(-c2ccc(Cl)cc2)nn1-c1nnc(/C=C/c2ccco2)c(=O)[nH]1`, the GI50 was 1.61 µM and the TGI is 30.9 µM.

As for `CSc1nc2c(ncn2C2OC(CO)C(O)C(O)C2O)c(=O)[nH]1` (centres undefined), the TGI was > 100 µM.

`CC1(C)CC(C#Cc2ccccc2)CC(C)(C)N1O` gave a TGI of 35.7 µM.

As to `C=CCNC(=O)N(CCC)CCCC(NC(C)=O)C(=O)NCc1ccccc1` (centres undefined), the TGI was > 100 µM.

Take `Cc1c(-c2ccccc2)[nH]n(C2=NCCN2)c1=O`: the TGI was > 100 µM.

Consider `O=S1CSSC1`, for which the TGI stood at 66.8 µM.
